Among all 150,000 compounds or so, about 540 (0.36%) showed an effect of 50% or more. The list shows a part of the results.
system: Plasmodium falciparum; assay: Primary screen in NF54 nanoGlo assay, in single point, at 2uM, 72h; a lower Z score goes with more inhibition; assay type: functional, Erythrocyte; details: timepoint 72 hour

Compound | % Inhibition | Z score
CO[C@H]1CCN(C(=O)NC(C)(C)C)C1 | -12% | 1.72
N#Cc1cnc(NC2(CN3CCCCC3)CC2)nc1N | -6% | 0.95
CN1C(C)(C)CC(n2cc(-c3ccc(C#CCCO)cc3)nn2)CC1(C)C | -4% | 0.57
C[C@]1(O)CCCN(c2cncc(OCC3CCCC3)n2)C1 | -7% | 1.2
O=C(c1ccc2ncsc2c1)N1CC[C@H](N2CCOC2=O)C1 | -2% | 0.33
COC1(CNS(=O)(=O)c2ccc(OCC(N)=O)cc2)Cc2ccccc2C1 | 6% | -0.81
CC1CC1c1ccc(CNCc2nnc(C(C)(C)C)s2)o1 (stereo not given) | -7% | 1.34
CCOc1ccc(Nc2cc(Nc3ccc(C)c(Cl)c3)cc(N3CCOCC3)c2)cc1 | 6% | -0.92
O=C1Nc2ccccc2C(=O)N2CCC[C@@H]12 | -5% | 0.56
C#CCCC1(CCC(=O)N2CC(n3ccnc3)C2)N=N1 | -17% | 2.08
Cc1cccnc1CNC(=O)C(=O)Nc1nc2ccccc2s1 | 2% | -0.44
CCC1CN(C(=O)Nc2ccc3c(n2)CCC3)CC(CC)O1 (stereo not given) | 1% | -0.15
CNC(=O)CNC(=O)c1ccccc1C | -10% | 0.9
CC1CN(C(=O)C2COCC(=O)N2Cc2ccccc2)CCO1 (stereo not given) | 3% | -0.43
CNC(=O)CCOC(=O)c1ccc(F)c(C)c1 | -12% | 1.74
Cn1cc(S(=O)(=O)N(CC(F)F)C2CC2)cc1C(N)=O | -4% | 0.45
COc1cccc(NC(=O)c2nnc(CCC(=O)Nc3cc(C)ccc3F)s2)c1 | -6% | 1.1
O=C(c1cccc(C(F)(F)F)c1)N1CCn2nc3c(c2C1)CCC3 | 5% | -0.87
Cc1ccc(C(=O)NC2CCN(C(=O)c3cn(C)c4ccccc34)CC2)o1 | -13% | 1.27
Cc1cc(C)c(C#N)c(N2CCC(n3cc(C(=O)N4CCCCC4)nn3)CC2)n1 | -3% | 0.57
CCCc1nc(CN(C)CC(C)(C)O)cs1 | -14% | 1.47
CC(C)C(=O)N1CCOc2ccc(CN3CCCCCC3)cc2C1 | -7% | 1.41
CC(=O)NCc1cc2n(n1)CCN(S(=O)(=O)c1ccc(Cl)s1)C2 | -9% | 1.33
CN1C(=O)[C@@H]2CC[C@H]1CN(C1CCN(c3ncc4ccc(F)cc4n3)CC1)C2 | 3% | -0.38
OC[C@H](CNc1ncccn1)Cc1cccc(Br)c1 | -11% | 2.09
O=C(NCc1ccoc1)C1(N2CCCC2)CCCC1 | 6% | -0.83
COc1cccc(-c2cc(C(=O)Nc3c(C)noc3C)c3c(C)nn(C)c3n2)c1 | 14% | -2.25
Cc1cncnc1C1CCN(C(=O)[C@H](O)c2ccc(Cl)cc2)CC1 | -17% | 2.5

Compound | % Inhibition | Z score
Cc1ccc2c(c1)[C@@H](NC(=O)Cc1ccncc1)CC(C)(C)O2 | -11% | 1.74
COc1cccc(CNS(=O)(=O)c2cc(-c3nc(-c4ccc(Cl)cc4)no3)cs2)c1 | -9% | 0.97
CCN(CC#N)S(=O)(=O)[C@H]1C[C@@H]1c1ccc(Br)cc1 | -9% | 1.47
COc1ccc(-c2cc(C)no2)cc1S(=O)(=O)CCC(=O)NCCc1ccccc1 | -10% | 1.32
COc1ccc(CCNC(=O)N2CCC[C@H](Oc3cc(C#N)ccn3)C2)cc1 | 1% | -0.08
Cc1nnc(-c2ccc3ccn(CC(=O)Nc4cccc(C)c4C)c3c2)o1 | 24% | -2.87
COc1ccc(NC(=O)[C@H]2CCCN(c3ccnc(-c4ccc(F)cc4)n3)C2)c(OC)c1 | -2% | 0.23
Cc1sc(=O)n(CC(=O)N2CCN(C)C[C@H]2c2ccccc2)c1-c1ccc(F)cc1 | 23% | -2.9
CCCC(=O)N1CCC[C@H](c2nn(CCOC)c(=O)n2C2CC2)C1 | 7% | -0.78
COC1CN(C(=O)Cc2c(C)n[nH]c2C)CCC1C (stereo not given) | -1% | 0.07
CC(C)NC(=O)CCN1CC[C@@]2(CCCN(Cc3cccc(F)c3F)C2=O)C1 | 2% | -0.31
COc1ccc(Nc2c(C(=O)N3CCC[C@H](C)C3)cnc3nc(C)ccc23)cc1 | -11% | 1.74
O=C(Cc1ccc(O)cc1)N[C@@H](CC1CCCCC1)C(=O)O | 2% | -0.27
Cc1ccc(NC(=O)Cn2c(=O)ccc3cc(S(=O)(=O)N4CCCC4)ccc32)c(C)c1 | 1% | -0.18
CC(C)C[C@@H](Nc1c(C#N)c(=O)n(C)c(=O)n1C)C(=O)OC(C)(C)C | -10% | 0.97
CC(C)=CCC[C@@]1(C)CCC(=O)N(Cc2nnc3ccccn23)C1 | -6% | 1.1
CCCCn1ccnc1C1CCN(C(=O)c2cccc(NC(C)=O)c2)CC1 | 0% | 0.04
Cc1occc1C(=O)NC1(c2ccccc2F)COC1 | 5% | -1.04
O=S(=O)(c1ccc2c(c1)CCO2)N1CCC(OCCc2ccccc2)CC1 | -3% | 0.6
Cc1c(C(=O)NCCc2cccs2)cnn1C | -1% | 0.06
C[C@H](NC(=O)NCCNS(C)(=O)=O)c1ccsc1 | -10% | 1.09
Cc1ccc(OCC(=O)NC2CCN(c3ccccc3C#N)CC2)cc1 | -6% | 0.7
Cn1cc(CN2CCC([C@H](O)c3cccnc3)CC2)c(-c2ccc3c(c2)OCCO3)n1 | -8% | 1.36
O=C(CN1CCN(C2CC2)C1=O)NC1(Cc2ccccc2Br)CC1 | -2% | 0.39
COc1cccc(OC/C=C/CN2CCN(C)CC2)c1 | 0% | -0.01
Cc1noc(C)c1S(=O)(=O)NCC1(O)CCCC1 | -3% | 0.56
CCOCc1nc2c(c(NC[C@H](C)n3cc(C)cn3)n1)CCNCC2 | -4% | 0.73

— ChEMBL document CHEMBL4888484, “Replenishing the malaria drug discovery pipeline: Screening and hit evaluation of the MMV Hit Generation Library 1 (HGL1) against asexual blood stage Plasmodium falciparum ,using a nano luciferase reporter read-out” (2022)
